From article PMC8807876
No constants are given. Whether binding was seen depends on the method and setting. Binding seen in cells or lysates may run through a third protein. Some binding calls cover weakened binding; strength is not graded here.

T1: endogenous MTBP (human (endogenous in 293T)) (UniProt Q96DY7)
T1 sequence: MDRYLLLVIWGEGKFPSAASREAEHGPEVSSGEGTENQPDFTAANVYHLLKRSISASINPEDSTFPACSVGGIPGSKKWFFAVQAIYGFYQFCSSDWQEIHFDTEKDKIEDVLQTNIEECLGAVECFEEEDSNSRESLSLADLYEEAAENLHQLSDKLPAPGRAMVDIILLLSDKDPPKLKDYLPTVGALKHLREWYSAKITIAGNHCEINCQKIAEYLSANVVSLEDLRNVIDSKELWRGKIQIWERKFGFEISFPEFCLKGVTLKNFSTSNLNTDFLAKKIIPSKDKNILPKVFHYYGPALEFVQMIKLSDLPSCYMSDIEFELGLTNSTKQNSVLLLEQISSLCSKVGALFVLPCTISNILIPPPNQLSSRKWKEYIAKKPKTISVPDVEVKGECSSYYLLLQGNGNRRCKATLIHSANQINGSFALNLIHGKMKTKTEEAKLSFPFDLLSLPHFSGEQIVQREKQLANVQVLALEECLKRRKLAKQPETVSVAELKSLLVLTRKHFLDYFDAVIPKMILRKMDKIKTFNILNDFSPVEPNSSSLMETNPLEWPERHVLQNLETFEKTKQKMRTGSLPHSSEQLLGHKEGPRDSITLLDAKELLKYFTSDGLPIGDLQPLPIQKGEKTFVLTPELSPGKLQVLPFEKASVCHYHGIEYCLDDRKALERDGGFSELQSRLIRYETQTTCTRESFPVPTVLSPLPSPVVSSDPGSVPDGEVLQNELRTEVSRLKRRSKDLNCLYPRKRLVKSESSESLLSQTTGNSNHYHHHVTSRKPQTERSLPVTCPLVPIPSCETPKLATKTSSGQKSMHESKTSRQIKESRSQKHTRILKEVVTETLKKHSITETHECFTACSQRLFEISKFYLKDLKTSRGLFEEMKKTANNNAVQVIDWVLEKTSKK


Assays:
[1] = biological target: GFP-Flag-Treslin/TICRR-WT (human) (UniProt Q7Z2Z1); assay: co-IP; Fig 4D: GFP-Flag-Treslin/TICRR-WT or core transiently transfected into 293T; native lysates (20 mM Hepes, 300 mM NaCl, 10% glycerol, 0.1% Triton, 2 mM EDTA), anti-GFP nanobody IP or empty control beads; immunoblot with rat anti-MTBP (12H7)
[2] = biological target: T1, endogenous MTBP (human (endogenous in 293T)); assay: co-IP; Fig 3B: N-terminally 3HA-tagged Treslin/TICRR fragments transiently transfected into 293T; IP of endogenous MTBP with rabbit anti-MTBP (amino acids 1-284) on protein G magnetic beads, control IgG IP; 20 mM Hepes, 200 mM NaCl, 10% glycerol, 0.1% Triton; anti-HA immunoblot

| Binder | binding [1] | binding [2] |
| --- | --- | --- |
| endogenous MTBP (protein, UniProt Q96DY7 1-904) MDRYLLLVIWGEGKFPSAASREAEHGPEVSSGEGTENQPDFTAANVYHLLKRSISASINPEDSTFPACSVGGIPGSKKWFFAVQAIYGFYQFCSSDWQEIHFDTEKDKIEDVLQTNIEECLGAVECFEEEDSNSRESLSLADLYEEAAENLHQLSDKLPAPGRAMVDIILLLSDKDPPKLKDYLPTVGALKHLREWYSAKITIAGNHCEINCQKIAEYLSANVVSLEDLRNVIDSKELWRGKIQIWERKFGFEISFPEFCLKGVTLKNFSTSNLNTDFLAKKIIPSKDKNILPKVFHYYGPALEFVQMIKLSDLPSCYMSDIEFELGLTNSTKQNSVLLLEQISSLCSKVGALFVLPCTISNILIPPPNQLSSRKWKEYIAKKPKTISVPDVEVKGECSSYYLLLQGNGNRRCKATLIHSANQINGSFALNLIHGKMKTKTEEAKLSFPFDLLSLPHFSGEQIVQREKQLANVQVLALEECLKRRKLAKQPETVSVAELKSLLVLTRKHFLDYFDAVIPKMILRKMDKIKTFNILNDFSPVEPNSSSLMETNPLEWPERHVLQNLETFEKTKQKMRTGSLPHSSEQLLGHKEGPRDSITLLDAKELLKYFTSDGLPIGDLQPLPIQKGEKTFVLTPELSPGKLQVLPFEKASVCHYHGIEYCLDDRKALERDGGFSELQSRLIRYETQTTCTRESFPVPTVLSPLPSPVVSSDPGSVPDGEVLQNELRTEVSRLKRRSKDLNCLYPRKRLVKSESSESLLSQTTGNSNHYHHHVTSRKPQTERSLPVTCPLVPIPSCETPKLATKTSSGQKSMHESKTSRQIKESRSQKHTRILKEVVTETLKKHSITETHECFTACSQRLFEISKFYLKDLKTSRGLFEEMKKTANNNAVQVIDWVLEKTSKK | binds | – |
| 3HA-Treslin/TICRR fragment, amino acids 260–671 (domain or fragment, UniProt Q7Z2Z1 260-671) LRSGIKLSSEPHLSPWISMLPTDATLNRLLYNSPEYEASFPRMEGMLFLPVEAGKEIQETWTVTLEPLAMHQRHFQKPVRIFLKGSVAQWSLPTSSTLGTDSWMLGSPEESTATQRLLFQQLVSRLTAEELHLVADVDPGEGRPPITGVISPLSASAMILTVCRTKEAEFQRHVLQTAVADSPRDTASLFSDVVDSILNQTHDSLADTASAASPVPEWAQQELGHTTPWSPAVVEKWFPFCNISGASSDLMESFGLLQAASANKEESSKTEGELIHCLAELYQRKSREESTIAHQEDSKKKRGVPRTPVRQKMNTMCRSLKMLNVARLNVKAQKLHPDGSPDVAGEKGIQKIPSGRTVDKLEDRGRTLRSSKPKDFKTEEELLSYIRENYQKTVATGEIMLYACARNMISTV | – | binds |
| 3HA-Treslin/TICRR, N-terminal 557 amino acids (domain or fragment, UniProt Q7Z2Z1 1-557) MACCHKVMLLLDTAGGAARHSRVRRAALRLLTYLSCRFGLARVHWAFKFFDSQGARSRPSRVSDFRELGSRSWEDFEEELEARLEDRAHLPGPAPRATHTHGALMETLLDYQWDRPEITSPTKPILRSSGRRLLDVESEAKEAEAALGGLVNAVFLLAPCPHSQRELLQFVSGCEAQAQRLPPTPKQVMEKLLPKRVREVMVARKITFYWVDTTEWSKLWESPDHLGYWTVCELLHHGGGTVLPSESFSWDFAQAGEMLLRSGIKLSSEPHLSPWISMLPTDATLNRLLYNSPEYEASFPRMEGMLFLPVEAGKEIQETWTVTLEPLAMHQRHFQKPVRIFLKGSVAQWSLPTSSTLGTDSWMLGSPEESTATQRLLFQQLVSRLTAEELHLVADVDPGEGRPPITGVISPLSASAMILTVCRTKEAEFQRHVLQTAVADSPRDTASLFSDVVDSILNQTHDSLADTASAASPVPEWAQQELGHTTPWSPAVVEKWFPFCNISGASSDLMESFGLLQAASANKEESSKTEGELIHCLAELYQRKSREESTIAHQEDS | – | binds |
| 3HA-Treslin/TICRR, N-terminal 486 amino acids (domain or fragment, UniProt Q7Z2Z1 1-486) MACCHKVMLLLDTAGGAARHSRVRRAALRLLTYLSCRFGLARVHWAFKFFDSQGARSRPSRVSDFRELGSRSWEDFEEELEARLEDRAHLPGPAPRATHTHGALMETLLDYQWDRPEITSPTKPILRSSGRRLLDVESEAKEAEAALGGLVNAVFLLAPCPHSQRELLQFVSGCEAQAQRLPPTPKQVMEKLLPKRVREVMVARKITFYWVDTTEWSKLWESPDHLGYWTVCELLHHGGGTVLPSESFSWDFAQAGEMLLRSGIKLSSEPHLSPWISMLPTDATLNRLLYNSPEYEASFPRMEGMLFLPVEAGKEIQETWTVTLEPLAMHQRHFQKPVRIFLKGSVAQWSLPTSSTLGTDSWMLGSPEESTATQRLLFQQLVSRLTAEELHLVADVDPGEGRPPITGVISPLSASAMILTVCRTKEAEFQRHVLQTAVADSPRDTASLFSDVVDSILNQTHDSLADTASAASPVPEWAQQELGHTT | – | no binding |
